Hit rate of the full screen: of about 52,000 compounds, about 4,300 (8.3%) were called active. Rule as the data show it: active = survival mostly below about 52% (no sharp cut-off); inactive = mostly above about 56%. Some of the results follow.
system: DeltatarO mutant; experiment: S. aureus survival, RN4220 and DeltatarO strains – OD600, teichoic acid synthesis inhibitors, primary screen (AID 463173); details: S. aureus RN4220 wild type/DeltatarO growth, OD600, 18 h, active compounds read low, screened at 18.75 µg/mL (by protocol)

| SMILES | survival |
| --- | --- |
| CC(=O)Nc1ccc(S(=O)(=O)N2CCN(Cc3ccccc3Cl)CC2)cc1 | active: 62% |
| O=C(Nc1cc(C(F)(F)F)ccc1Cl)c1ccc2c(c1)CCN2S(=O)(=O)c1ccccc1 | inactive: 48% |
| COc1cc(OC)cc(-c2cc3nc(-c4ccccc4)cc(N4CCN(c5ccccc5)CC4)n3n2)c1 | inactive: 101% |
| CCc1ccc(CNC(=O)C(CC)n2nc(C)c3c(C)n(-c4ccccc4)nc3c2=O)cc1 (stereo not given) | inactive: 106% |
| CCCNc1ccc(-c2nc(-c3ccco3)no2)cc1[N+](=O)[O-] | active: 57% |
| O=C(O)CCC(=O)N1N=C(c2ccccc2)CC1c1ccc2nccnc2c1 (stereo not given) | inactive: 99% |
| CN1CCN(C(=O)c2ccccc2C(=O)O)CC1 | inactive: 96% |
| COc1ccc(CNc2nc(-c3ccco3)nn2C(=O)CC(C)C)cc1 | inactive: 103% |
| CCOC(=O)c1[nH]c2ccccc2c1NC(=O)c1ccccc1OC | active: 51% |
| CC(Oc1ccccc1)C(=O)Nc1nnc(S(=O)(=O)N2CCCCCC2)s1 (stereo not given) | inactive: 50% |
| COc1ccc(C(=O)Nc2nnc(S(=O)(=O)N3CCN(c4ccc(C)cc4)CC3)s2)cc1 | active: 48% |
| Cc1ccccc1C(=O)Nc1cccc(-c2cn3cccnc3n2)c1 | inactive: 82% |
| Cc1ccc(Oc2nc3c(c(=O)n(Cc4ccccc4Cl)c(=O)n3C)n2C)cc1C | inactive: 61% |
| COc1ccc(-c2cc3nc(C)c(CCC(=O)Nc4ccc(F)cc4F)c(C)n3n2)c(OC)c1 | inactive: 84% |
| COc1cccc(-c2cc(C(=O)Nc3ccc4c(c3)OCO4)no2)c1 | inactive: 69% |
| Cc1cn2c(=O)cc(COc3cccc(NC(=O)c4ccccc4Cl)c3)nc2s1 | inactive: 72% |
| COc1ccc(N2CCN(C(=O)c3ccc4c(c3)N(Cc3cc(C)ccc3C)C(=O)c3ccccc3S4=O)CC2)cc1 (stereo not given) | inactive: 85% |
| COc1cccc(N2CC(NC(=O)C3CCCCC3)CC2=O)c1 (stereo not given) | inactive: 144% |
| CC(=O)c1c(C)oc2ccc(NS(=O)(=O)c3ccc(C(C)C)cc3)cc12 | inactive: 78% |
| CCS(=O)(=O)N1CCCC(c2nc3c(nnn3Cc3ccc(C)cc3)c(=O)[nH]2)C1 (stereo not given) | inactive: 88% |
| CN(C(=O)CSc1nc(N)cc(=O)[nH]1)c1ccccc1 | inactive: 94% |
| CCSc1ncc(Cl)c(C(=O)Nc2sc3c(c2C(=O)NC)CCCC3)n1 | inactive: 82% |
| CC(Oc1ccccc1F)C(=O)Nc1ccc(-c2nc3ccccc3s2)cc1 (stereo not given) | inactive: 107% |

| SMILES | survival |
| --- | --- |
| CCc1cccc(NC(=O)CN(C)S(=O)(=O)c2cccc3cccnc23)c1 | inactive: 59% |
| CC1CCc2c(sc(NC(=O)c3cc4nc(-c5ccc(Cl)cc5)cc(C(F)(F)F)n4n3)c2C#N)C1 (stereo not given) | inactive: 91% |
| CC(=O)c1ccc(N2CCN(C(=O)CCS(=O)(=O)c3ccc4c(c3)oc(=O)n4C)CC2)cc1 | inactive: 83% |
| CCOc1ccc(N2CC(C(=O)NCc3nnnn3-c3ccc(C)c(C)c3)CC2=O)cc1 (stereo not given) | inactive: 57% |
| CCOc1ccc(NS(=O)(=O)c2ccc3[nH]cc(C(=O)NCC4CCCO4)c(=O)c3c2)cc1 (stereo not given) | inactive: 87% |
| COC(=O)CN1C(=O)CSc2ccc(S(=O)(=O)Nc3cccc(Cl)c3C)cc21 | inactive: 92% |
| Nc1c(-c2nc(-c3ccc(F)cc3)cs2)c2ccccn2c1C(=O)c1ccc2c(c1)OCO2 | inactive: 89% |
| CC(=O)Nc1cccc(-c2nc3ccccc3o2)c1 | inactive: 107% |
| Cc1cc(=O)n(CC(=O)N2CCN(c3ccc(F)cc3)CC2)c2c1c(C)nn2C | inactive: 99% |
| COc1ccc(NCc2cc3ccc(OC)cc3n(CC(=O)Nc3cc(Cl)ccc3C)c2=O)cc1 | inactive: 78% |
| CC(C)CCN(C(=O)Nc1ccc(Cl)c(Cl)c1)C(C)c1cccs1 (stereo not given) | inactive: 116% |
| O=c1[nH]c2sc3c(c2c(=O)n1-c1ccccc1)CCCC3 | inactive: 70% |
| O=C(Nc1cccnc1)C12CC3CC(CC(C3)C1)C2 | inactive: 62% |
| CCOC(=O)c1c(S(=O)(=O)NCC(=O)NCc2ccccc2)c(C)n(C)c1C | inactive: 80% |
| CCc1ccc2c(c1)NC(c1ccc(OC)cc1)=NC(c1ccncc1)=N2 | inactive: 72% |
| COc1cc(/C=C/c2nc(C#N)c(N3CCC(C)CC3)o2)cc(OC)c1OC | inactive: 57% |
| CCOc1ccccc1NC(=O)C(C)N(c1ccccc1)S(C)(=O)=O (stereo not given) | inactive: 91% |
| CCCCCC1CC(CC(=O)Nc2nncs2)C(=O)O1 (stereo not given) | inactive: 110% |
| COc1ccc(S(=O)(=O)c2cnc(SCC(=O)Nc3cc(F)ccc3C)[nH]c2=O)cc1Cl | inactive: 84% |
| CCC1CCCCN1C(=O)c1sc(-n2nc(C)c(Cc3ccccc3)c2C)nc1C (stereo not given) | inactive: 69% |
| Cc1ccc(Cl)cc1NC(=O)CN1C(=O)C(C)(C)c2cc(S(=O)(=O)N3CCCCC3)ccc21 | active: 6% |
| CC(=O)c1cccc(NC(=O)c2cc3c(s2)-c2c(C)cccc2OC3)c1 | inactive: 120% |
| Cc1cc(NC(=O)c2ccc(NC(=O)C(C)C)cc2)no1 | active: 72% |

| SMILES | survival |
| --- | --- |
| Cc1ccc(NC(=O)C2CCN(S(=O)(=O)c3cc(-c4noc(C)n4)ccc3C)CC2)c(C)c1 | inactive: 134% |
| CCCN(CCC)CCCNC(=O)c1cc2c(=O)[nH]c3ccccc3c2n1C | inactive: 94% |
| COc1ccc(C2N3CC4(C)CN2CC(c2ccccc2)(C3)C4=O)cc1OC (stereo not given) | inactive: 97% |
| O=C(NC1CCCC1)C(c1ccc(N2CCOCC2)cc1)N(Cc1ccco1)C(=O)c1ccco1 (stereo not given) | inactive: 83% |
| O=C(CSc1c2c(nc3cc(Cl)ccc13)CCCC2)NCc1ccccc1Cl | inactive: 75% |
| C/C=C/C(=O)Nc1ccc(Cl)c(Cl)c1 | inactive: 70% |
| Cc1ccc2c(c1)N(CCCC(=O)NCc1cccc(F)c1)C(=O)CO2 | inactive: 127% |
| COc1ccccc1OCC(=O)Nc1c(C(=O)c2ccc(F)cc2)oc2ccccc12 | inactive: 77% |
| CSc1ncc(C(=O)N2CCN(c3cccc(C(F)(F)F)c3)CC2)c(C)n1 | inactive: 69% |
| COc1ccc(NC(=O)C(NC(=O)/C=C\c2ccc3c(c2)OCO3)c2ccccc2)cc1 (stereo not given) | inactive: 55% |
| CCc1ccccc1NC(=O)C1CCCN(c2cnccn2)C1 (stereo not given) | inactive: 90% |
| Cc1ccc(NC(=O)CSc2nc(=O)cc(N)n2CCc2ccccc2)cc1 | inactive: 50% |
| O=C(Nc1cccc(NC(=O)c2ccccc2Cl)c1)c1cccc(Br)c1 | inactive: 79% |
| Cc1c(C(=O)Nc2ccc(F)cc2F)sc2nc3n(c(=O)c12)N=C(c1ccccc1)CS3 | inactive: 77% |
| Cn1nccc1C(=O)NCc1ccc2c(c1)CCN2C(=O)c1ccc(Cl)cc1 | inactive: 84% |
| CC(Sc1oc(-c2cccs2)nc1S(=O)(=O)c1ccccc1)c1ccccc1 (stereo not given) | active: 44% |
| O=C1c2ccccc2-c2onc3c(NCCO)cc(NC4CCCCC4)c1c23 | inactive: 74% |
| COc1ccc(C(CNC(=O)COc2cc(C)cc(C)c2)N2CCOCC2)cc1 (stereo not given) | inactive: 65% |
| CCc1ccc(Oc2c(C(F)(F)F)oc3c(CN4CCCC(C)C4)c(O)ccc3c2=O)cc1 (stereo not given) | inactive: 77% |
| CCc1ccc(NC(=O)c2nn(-c3ccc(OC)cc3)c(=O)c3c2c2ccccc2n3C)cc1 | inactive: 76% |
| COc1ccc(N2CCN(c3csc4ccccc4c3=O)CC2)cc1 | inactive: 81% |
| CCCCOc1ccc(Cn2c(=O)sc3ccccc32)cc1 | active: -1% |
| CC(CNC(=O)CCS(=O)(=O)c1cc2c(cc1Cl)NC(=O)CO2)c1ccccc1 (stereo not given) | inactive: 79% |

| SMILES | survival |
| --- | --- |
| CCOC(=O)c1ccccc1NC(=O)CCc1nc(-c2ccc(C)cc2)no1 | inactive: 58% |
| c1ccc(N2CCN(N=C3c4ccccc4-c4ccccc43)CC2)nc1 | active: 18% |
| CCOC(=O)c1c(NC(=O)CSc2cn(CCNC(=O)c3ccccc3F)c3ccccc23)sc2c1CCCC2 | inactive: 89% |
| O=C(Cn1c(=O)n(-c2ccc(Cl)cc2)c(=O)c2c3c(sc21)CCC3)c1ccccc1 | inactive: 78% |
| CC(C)(C)OC(=O)N1CCC(c2c(C(=O)N3CCN(C(=O)c4ccco4)CC3)cnn2-c2ccccc2Cl)CC1 | inactive: 67% |
| COCCCNC(=O)c1ccc2c(c1)NC(=O)C(C(C)C)N2 (stereo not given) | inactive: 57% |
| CCOC(=O)c1ccc(NC(=O)c2nn(C)c3c2COc2ccccc2-3)cc1 | inactive: 106% |
| Cc1ccc(S(=O)(=O)c2nnn3c2nc(NCc2ccccc2Cl)c2sccc23)cc1 | inactive: 78% |
| O=C(/C=C\Nc1ccccn1)c1ccc2c(c1)OCO2 | inactive: 94% |
| CC(C)c1ccc(OCc2cc(=O)n3c(-c4ccccc4)csc3n2)cc1 | inactive: 117% |
| COc1cc(-c2cc(OC)c3c(C)oc(C)c3c(=O)c2)ccc1OC(=O)c1cccc(Cl)c1 | inactive: 103% |
| Cn1c(SCc2ccccc2F)nc2c([nH]c3ccccc32)c1=O | inactive: 97% |
| CCc1nn(CCCC(=O)NC(C)c2ccccc2)c(=O)c2cc3occc3n12 (stereo not given) | inactive: 83% |
| Cc1ccc(Cn2cc(CCC(=O)NCc3ccc(OC(C)C)cc3)c3ccccc32)cc1 | inactive: 81% |
| CCCCNC(=O)C(CC)Sc1nc2ccccc2c(=O)n1CCc1ccc(OC)c(OC)c1 (stereo not given) | inactive: 122% |
| COCCN(CCOC)c1ncnc2c1c(-c1ccccc1)cn2-c1ccc(C)c(Cl)c1 | inactive: 67% |
| Cc1cc2ccccc2n2c(SCC(=O)O)nnc12 | inactive: 81% |
| Cc1ccc(NC(=O)C(C#N)Cc2ccncc2)cc1C (stereo not given) | inactive: 67% |
| CC(C)(C)NC(=O)c1oc2ccccc2c1NC(=O)c1ccc(F)cc1 | inactive: 71% |
| CCC(=O)Nc1ccc(C(=O)Nc2c[nH]c(=O)[nH]c2=O)cc1 | inactive: 85% |
| Cc1ccccc1C(=O)c1cccn1CC(=O)NCc1cccc(Cl)c1 | inactive: 92% |

From PubChem BioAssay AID463173 (ICCB-Longwood Screening Facility, Harvard Medical School, 2010)
